Assay results published in PubChem BioAssay AID1461 (National Center for Advancing Translational Sciences (NCATS), 2008).
About 2,300 (1%) of roughly 220,000 compounds were called active. This list was built around the results that the source calls inconclusive (neither active nor inactive); the mix of calls is not that of the screen. The call rests on the fitted dose curve; in most records, active means well fitted inhibition curve with a large enough effect; inconclusive means small, poorly fitted or top-dose-only effect, or effect the other way; inactive means no such curve, though single readings can be large or run the other way. Potencies of inconclusive entries are left out as doubtful fits.

These compounds were tested against Neuropeptide S receptor (Homo sapiens) (UniProt Q6W5P4) (assay: qHTS Assay for Antagonists of the Neuropeptide S Receptor: cAMP Signal Transduction). Conditions: CHO-NPSR cells, cAMP TR-FRET, antagonist mode; series mostly up to 38.3 µM.
Sequence of UniProt Q6W5P4 (Q6W5P4 whole entry, looked up): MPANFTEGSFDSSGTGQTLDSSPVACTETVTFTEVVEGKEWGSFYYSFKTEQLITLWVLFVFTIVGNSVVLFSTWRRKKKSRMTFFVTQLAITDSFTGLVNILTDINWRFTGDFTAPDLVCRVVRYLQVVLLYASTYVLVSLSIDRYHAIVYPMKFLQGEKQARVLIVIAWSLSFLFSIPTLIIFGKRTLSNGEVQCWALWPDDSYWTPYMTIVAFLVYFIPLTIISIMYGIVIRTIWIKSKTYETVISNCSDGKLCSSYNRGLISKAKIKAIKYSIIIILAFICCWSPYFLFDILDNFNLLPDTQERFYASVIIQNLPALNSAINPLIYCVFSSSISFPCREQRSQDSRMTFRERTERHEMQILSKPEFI
Further: nearly all actives have a fitted effect of over 50% in size.
Potency means the concentration at half of the fitted maximal effect; tags describe the fitted curve by direction and shape.

Row | SMILES | Potency
1 | COc1cc(C2C3=C(CC(C)(C)CC3=O)OC(N)=C2[N+](=O)[O-])ccc1O (stereo not drawn) | inactive
2 | CCn1ccnc1CN1CCCC(C(=O)c2ccc3cc(OC)ccc3c2)C1 (stereo not drawn) | inconclusive [activator, single point]
3 | Cc1onc(-c2ccccc2Cl)c1C(=O)OCC(=O)N1CCCc2ccccc21 | inconclusive [inhibitor, partial curve]
4 | O=C1c2ccccc2C(Nc2ccc(S(=O)(=O)N3CCCCCC3)cc2)N1c1ccccn1 (stereo not drawn) | inactive
5 | O=C(Nc1nc2c(Br)cc(Br)cc2c(=O)s1)C1CCC1 | inconclusive [inhibitor, single point]
6 | CCCC(=O)Nc1cc(=O)n(C)c(=O)n1C | inconclusive [activator, full curve, poor fit]
7 | N=C(N)SCCc1cnc[nH]1 | inconclusive [activator, full curve, poor fit]
8 | CC(C)=C1C2CCC1C1C(=O)N(c3nc(-c4ccc(F)cc4)c(C)s3)C(=O)C21 (stereo not drawn) | inconclusive [inhibitor, partial curve]
9 | C=CCn1c(SCc2nc3ccccc3c(=O)[nH]2)nc2scc(C3CC3)c2c1=O | inconclusive [activator, single point]
10 | COc1ccc(-c2cc(C(F)(F)F)c(C#N)c(SCC(=O)Nc3ccccc3C#N)n2)cc1 | inconclusive [activator, single point]
11 | O=C(NCC1CCCC(CNC(=O)N2CCc3ccccc32)C1)N1CCc2ccccc21 (stereo not drawn) | inconclusive [inhibitor, single point]
12 | Cc1ccc(N2C(=O)C3C4C=CC(CNC(=S)N5CCN(c6ccccn6)CC5)(O4)C3C2=O)cc1 (stereo not drawn) | inconclusive [inhibitor, single point]
13 | COc1cccc(NC(=O)CNC(=O)c2ccc(F)cc2)c1 | inactive
14 | O=C(CSc1nc(Nc2ccccc2)nc(N2CCOCC2)n1)Nc1ccc2c(c1)OCCO2 | inconclusive [inhibitor, single point]
15 | CC1CCN(C(=S)Nc2ccc(SC(F)F)cc2)CC1 | inactive
16 | CC1=C(C(=O)OCC2CCCO2)C(c2cccc(O)c2)NC(=O)N1 (stereo not drawn) | inconclusive [inhibitor, partial curve]
17 | COc1cc(N2C(=O)C=CC2=O)c(OC)cc1Cl | inconclusive [activator, single point]
18 | CC(=O)N(CCN(C(C)=O)c1ccccc1)c1ccccc1 | inactive
19 | O=C(CSc1nc2ccccc2n1Cc1ccccc1Cl)N/N=C/c1ccccc1C(=O)O | inactive
20 | COc1cc(NC(=O)c2ccc(C(C)(C)C)cc2)c(OC)cc1NC(=O)CN1CCCCC1 | inconclusive [activator, partial curve]
21 | COc1ccccc1CN(Cc1cc2c(C)ccc(C)c2[nH]c1=O)Cc1nnnn1Cc1ccco1 | inconclusive [inhibitor, partial curve]
22 | Cc1cccc(-n2ncc3c(NCc4ccc5c(c4)OCO5)ncnc32)c1 | inconclusive [inhibitor, single point]
23 | O=c1c2[nH]c3ccc(Br)cc3c2ncn1Cc1ccncc1 | inconclusive [activator, single point]

Row | SMILES | Potency
24 | CCC(C)(C)n1nnnc1C(c1ccc(C)cc1)N1CCC(C)CC1 (stereo not drawn) | inconclusive [inhibitor, single point]
25 | CCOC(=O)c1cc2c(ccn2C)n1CC(=O)N1CCC(Cc2ccccc2)CC1 | inconclusive [inhibitor, single point]
26 | COc1nc(NC2CCCCC2)nc(N2CCCCCC2)n1 | inconclusive [inhibitor, single point]
27 | CCCc1[nH]n(-c2nc3ccccc3s2)c(=O)c1C=NCC1CCCO1 (stereo not drawn) | inactive
28 | CCOC(=O)c1sc(N)c(C#N)c1CSc1nc2ccc(OCC)cc2[nH]1 | inconclusive [inhibitor, single point]
29 | COc1ccc(S(=O)(=O)N2CC3CCCN3c3ccc(C(F)(F)F)cc32)cc1 (stereo not drawn) | inconclusive [inhibitor, partial curve, poor fit]
30 | COc1cccc2[nH]c3c(N4CCN(Cc5ccc6c(c5)OCO6)CC4)ncnc3c12 | inconclusive [inhibitor, single point]
31 | Nc1c(O)ccc2c1C(=O)c1ccccc1C2=O | active: 10 µM
32 | Cc1ccc(NC(=O)Cn2c(C)cc(C)c(C#N)c2=O)c(Cl)c1 | inactive
33 | CCCCC(=O)NC(c1ccc([N+](=O)[O-])cc1)c1c(O)ccc2ccccc12 (stereo not drawn) | inconclusive [inhibitor, single point]
34 | Nc1cc2nsnc2cc1Br | active: 2.51 µM
35 | Cc1ccc(NC(=O)c2ccc(-c3nn(C)c(=O)c4ccccc34)cc2)c(C)c1 | inconclusive [inhibitor, single point]
36 | O=C(C1=C[C@H](C2CCCCC2)C[C@H](OCCCCO)O1)N1CCN(Cc2ccc3c(c2)OCO3)CC1 | inconclusive [activator, partial curve]
37 | CCCOc1ccc(/C(O)=C2/C(=O)C(=O)N(CCOC)C2c2cccnc2)cc1 (stereo not drawn) | inconclusive [activator, partial curve, poor fit]
38 | CCOC(=O)c1c(CSc2ccc(C)cc2)n(C)c2cc(Br)c(O)c(CN(C)C)c12 | inconclusive [activator, partial curve]
39 | CC(=O)c1ccc(NC(=O)CN2C(=O)/C(=C/C=C/c3ccccc3)SC2=S)cc1 | inactive
40 | O=C(CN1CCOCC1)N1N=C(c2cccs2)CC1c1cccs1 (stereo not drawn) | inactive
41 | CCc1cc2c(=O)c(-c3nc4ccccc4n3C)c(C(C)C)oc2c(CN2CCN(C)CC2)c1O | inactive
42 | CN(C)CCN(C)Cc1ccccc1Sc1cccc2ccccc12 | inconclusive [inhibitor, single point]
43 | CCCC(C(=O)NC1CCCC1)N(C(=O)Cn1nnc(-c2ccc(C)o2)n1)C1CCCC1 (stereo not drawn) | inactive
44 | CN(C)c1nc(-c2ccccc2)nc(-c2ccc(Cl)cc2)c1C#N | inconclusive [inhibitor, single point]
45 | Cc1ccc(S(=O)(=O)N(CC(=O)N2CCC(C)CC2)Cc2ccccc2F)cc1 | inconclusive [inhibitor, single point]
46 | CCC(C)NCCOCCOc1ccc(Cl)c2ccccc12 (stereo not drawn) | inconclusive [inhibitor, single point]

Row | SMILES | Potency
47 | CCSc1ccccc1C(=O)n1nnc2ccccc21 | inconclusive [inhibitor, single point]
48 | Cc1nc(C)c(-c2csc(NCc3ccccc3)n2)s1 | inconclusive [inhibitor, single point]
49 | CCOC(=O)Cn1c(=O)c2c(nc(N3CCCCC3)n2Cc2ccccc2)n(C)c1=O | inconclusive [inhibitor, partial curve, poor fit]
50 | O=c1c2ccccc2nc(SCc2nc3ccccc3s2)n1Cc1ccco1 | inconclusive [inhibitor, partial curve, poor fit]
51 | O=C(NC(c1ccccc1)c1ccccc1)C1CCCO1 (stereo not drawn) | inactive
52 | CCOC(=O)c1c(-c2cccs2)csc1NC(=O)c1ccncc1 | inconclusive [inhibitor, single point]
53 | N#C/C(=C/c1ccc(Sc2nc3ccccc3[nH]2)o1)c1ccccc1F | inconclusive [inhibitor, single point]
54 | Cc1cc(NC(=O)c2ccc3c(c2)OCCO3)no1 | inconclusive [inhibitor, single point]
55 | O=C1CCCC(=O)C1C1c2ccccc2CCN1C(=O)CCl (stereo not drawn) | inconclusive [activator, single point]
56 | COc1ccc(-c2nc3ccccc3n2Cc2ccccc2)cc1 | inconclusive [inhibitor, single point]
57 | C=CCn1c(-c2ccc(C)cc2)nc2ccccc21 | inconclusive [inhibitor, single point]
58 | COc1ccc(NC(=O)/C(C#N)=C/c2ccc3c(c2)n(C)c(=O)n3C)cc1 | inactive
59 | OC(COC(c1ccc(F)cc1)c1ccc(F)cc1)CN1CCc2ccccc2C1 (stereo not drawn) | inconclusive [inhibitor, single point]
60 | CCOC(=O)C(C)N1C(=O)S/C(=C/c2ccc3c(c2)n(C)c(=O)n3C)C1=O (stereo not drawn) | inactive
61 | CC(C)(C)c1cc(CSC(=S)NC2CCS(=O)(=O)C2)c(Br)c(C(C)(C)C)c1 (stereo not drawn) | inconclusive [inhibitor, single point]
62 | Cc1nc(-c2ccc(S(=O)(=O)Oc3ccccc3Cl)s2)cs1 | inconclusive [activator, partial curve]
63 | N#Cc1ccc(CSc2nnc(-c3cccs3)n2-c2ccccc2)cc1 | inconclusive [inhibitor, single point]
64 | COc1cccc(N(CC(=O)NCCSc2ccccc2)S(C)(=O)=O)c1 | inconclusive [inhibitor, single point]
65 | COc1ccc(-c2csc(-c3cccnc3)n2)cc1C | inconclusive [activator, single point]
66 | Cc1ccc(CN2CN(S(=O)(=O)c3cccs3)c3nc4ccccc4nc32)cc1 | inconclusive [inhibitor, single point]
67 | Cc1cc(C)cc(NC(=O)CSc2nc(N)c(NC(=O)c3cccs3)c(=O)[nH]2)c1 | inactive
68 | O=C(CCCSc1nc2ccccc2c(=O)[nH]1)c1ccc(F)cc1 | inconclusive [inhibitor, single point]
